# In all, about 33,000 sequences were measured (“E-score (-0.5 to 0.5)”: median about -0.056, highest 2% from about 0.38 on). The list shows a part of the results.
# Target: Stb4 (UniProt P50104)
# Assay: PBM E-score (8-mer binding enrichment) (E-score (-0.5 to 0.5)); higher = stronger / more preferred TF binding; most listed sequences are background and not binding sites
# Settings: protein concentration: 200 nM; construct: GST-DNA-binding domain
# Method in brief: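 PURExpress in vitro transcription/translation supplied GST-tagged yeast transcription factors, either full-length or DNA-binding domain. Applied at about 100-200 nM to universal all-10-mer Agilent arrays double-stranded by primer extension, the bound protein was detected with fluorescent anti-GST. E-scores, modified Wilcoxon-Mann-Whitney statistics, were given by the Universal PBM Analysis Suite to ungapped eight-base words pooled with their reverse complements after masliner normalisation.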
row,Sequence,PBM E-score
1,CATGTATA,-0.276
2,ATGTTTGA,-0.104
3,TCCTGGCA,-0.127
4,ATAACGTA,0.0685
5,ATGCTGTG,-0.243
6,TAAGAGCA,-0.193
7,GCTTAGAC,-0.18
8,ATGAGTGG,-0.209
9,CCAAGGCC,-0.149
10,GCGAATCA,-0.00549
11,CCCCTGGA,-0.099
12,CAATAAAG,0.0196
13,ACGCGCAT,-0.0614
14,CTTGGTCA,-0.102
15,GCACGCTA,0.049
16,GCGGAAGA,0.317
17,CGCTCATC,-0.0735
18,CAGATCGC,0.0154
19,ATATCCCC,0.0386
20,GGGTCACC,-0.0719
21,AGCGGGAG,0.12
22,AGGGCTAC,-0.176
23,AGCAGCTC,0.00561
24,ATGGGTCC,0.0523
25,CGCGTGTC,0.104

row,Sequence,PBM E-score
1,TATGGGCA,-0.168
2,TGTTTAAA,-0.2
3,GCGGCCCC,-0.0368
4,AGGTCAGG,-0.172
5,ATCTGGAC,0.0445
6,ATTTTAGC,0.0784
7,GGATTTCA,0.147
8,ATTAGGTG,-0.0979
9,ACAGCTAA,-0.173
10,ACCTGGTA,-0.218
11,ATCATTAG,-0.192
12,GAACAAGC,-0.135
13,GAAAAGCC,0.0816
14,ATCATACA,-0.148
15,AGTCACTC,-0.0339
16,AGTTGATA,-0.119
17,GACTCACA,-0.218
18,CTGAACAG,-0.0299
19,CTCGATCA,-0.155
20,ACGCGAAA,-0.199
21,GGTATTCA,0.0901
22,CACCTGTC,-0.0171
23,AGCACTCC,-0.0384
24,ACAGGGCA,-0.263
25,GTCTTATA,-0.184

row,Sequence,PBM E-score
1,CAGATAAG,-0.164
2,GCGCTGCA,-0.176
3,GTCCCGCA,0.213
4,CTGGAACA,-0.0971
5,CCCGCTGC,0.0999
6,CGCGCTGC,-0.161
7,ACGGTCCC,0.0782
8,AGCAAACC,0.0287
9,CGGTCACG,0.0638
10,GCCGGCTA,0.265
11,ATCTAGTC,0.119
12,CGTCCTCC,0.0587
13,AGCTAAAC,-0.13
14,CGTTATGA,0.0695
15,AAAACTGT,-0.183
16,AAACTTAC,-0.17
17,AGAGTCGA,-0.0614
18,CTGACGAA,-0.234
19,GACGCTAA,-0.141
20,GCACTGCA,-0.113
21,ATGGGATC,-0.00477
22,CCCCACCA,0.0228
23,GTTTTTAA,-0.0532
24,AACCCATA,0.053
25,ACCGTCGG,0.3

row,Sequence,PBM E-score
1,ATCGCCGG,0.269
2,GCTCCACC,0.0363
3,ACCCCTCG,0.122
4,AGTGACTG,-0.205
5,AGCTCAAC,-0.083
6,AATGAAAT,-0.00997
7,AACTCGGT,0.286
8,AAAAAGAA,0.0798
9,GCTCTACC,-0.159
10,AACATTGT,-0.0501
11,AGTATCCC,-0.0361
12,TCTCTGAA,-0.305
13,ATAGAATC,0.0315
14,AATTACGG,0.216
15,ACATGATG,-0.119
16,ATGATGGC,-0.0488
17,AGCTACAA,-0.126
18,ACGAGAGA,-0.116
19,ATTCAGTC,-0.0427
20,AAAATAGA,0.124
21,AAATCACA,0.0724
22,AGCGGCCA,-0.0341
23,CGATCCCC,0.126
24,CCCGTGCC,0.271
25,GATGCTAC,-0.064

row,Sequence,PBM E-score
1,AGTGCTGC,-0.217
2,CAGTTATC,-0.00517
3,CAGGTTAA,-0.272
4,AAACTCTA,-0.032
5,CTATGAGA,-0.235
6,AAAATCTA,0.0971
7,AACCCAGG,-0.167
8,ATTGCGAA,-0.0863
9,AGTCGGTA,0.273
10,ACTCTACC,-0.0488
11,TGGAAGAA,0.0743
12,ATCATGCC,-0.0651
13,GGTGGTAA,0.166
14,GAGACTCC,-0.0168
15,CAAAAGTG,-0.308
16,CGCTGTCC,0.0145
17,AGGAGAGA,-0.185
18,GTCAAGTA,-0.239
19,CGAAAGTC,0.185
20,CACTGCGC,-0.0903
21,AAAGAGTG,-0.107
22,AGTAAAAG,0.0577
23,GTCCACTA,-0.303
24,CCAGACCG,-0.0146
25,CATCCACC,0.0619

row,Sequence,PBM E-score
1,GTAAGAAA,0.00794
2,AACGAGTC,-0.0122
3,AGCCTCGC,-0.0941
4,AGCATTGG,-0.12
5,CATAACCA,-0.0583
6,ATTAGTGA,0.00313
7,GTGAGTCA,-0.326
8,AGCCCGGC,0.211
9,CCCACAGC,-0.145
10,AAAGTACT,0.0129
11,ATAATTAG,0.171
12,ACCATGTG,-0.171
13,AAAGCGTC,-0.194
14,TCCCATCA,-0.227
15,GCGTGGAA,-0.0528
16,GTACAAAC,-0.0206
17,TATGGTAA,0.0509
18,GGCATGTA,0.0372
19,CCCGACGA,0.34
20,CCTAGTAG,-0.0242
21,ATTGATAA,-0.225
22,CCTGGTAA,-0.122
23,CAGATGGG,-0.21
24,ACCATCGT,-0.189
25,ACCGAATA,0.215

row,Sequence,PBM E-score
1,CAAGACGG,0.123
2,GTCCCGGA,0.331
3,CACCATGC,-0.0998
4,GAGTTTTA,0.00571
5,AGCACAAA,-0.00696
6,GCGGAATA,0.278
7,GCATGAAC,-0.0456
8,CGGCGTTC,0.202
9,GTGGCTTA,-0.317
10,CGGTAGGC,0.146
11,CTTCCAAC,-0.152
12,CGCAGTCC,-0.114
13,GAGGCTTA,0.0234
14,CGTAGCAA,-0.289
15,AGTGTACA,-0.176
16,AGGGGAGA,-0.0188
17,TTTTAAAA,-0.0647
18,TCTCGGCA,0.446
19,CCCCTTAA,-0.225
20,ACACATAA,-0.108
21,GCACGCAC,-0.21
22,AACGGGAG,0.258
23,TCACGCGA,-0.057
24,AAGCTGCT,-0.178
25,TAGACGGA,0.164

row,Sequence,PBM E-score
1,GAGCTTTA,0.0265
2,GCGGGACC,0.247
3,CCTCGAGA,-0.185
4,ACCTCACT,-0.107
5,ACACGTAG,-0.291
6,CGTGACGA,-0.0351
7,TCCCGCAA,0.166
8,ACACTACA,-0.0985
9,GGAGTTGA,0.0931
10,ACGGAGGC,0.116
11,GATCACGC,-0.0587
12,ACGAATAG,-0.303
13,CTCCTAGC,-0.167
14,CCAGTAGG,-0.194
15,TATTACCA,-0.0981
16,ACTCTCCG,0.205
17,CCCCCCTC,-0.267
18,TATAGTAA,0.0133
19,TAGTACGA,-0.0838
20,AAGCGCAT,-0.097
21,CGAGTCGC,0.139
22,ACCAATTA,-0.163
23,GACAACAC,-0.0624
24,TATACAGA,-0.252
25,CGCATACA,-0.0747

row,Sequence,PBM E-score
1,GCGGTAGA,-0.0188
2,ACTCTTAT,-0.109
3,CATCGCAC,-0.124
4,TCAGGACA,-0.147
5,CGCGTCTC,-0.016
6,GACCGTTA,-0.0227
7,ACCCACTG,0.152
8,CAGTACCC,-0.0162
9,GGCGTTCA,-0.0303
10,ACCTAAAA,-0.17
11,ATGGTTGG,0.0462
12,AGTAATGG,-0.0854
13,ATTTCGTG,-0.141
14,AGGACCCG,0.286
15,GAACCTTA,0.219
16,CGCCAACA,0.0585
17,CTTCTACA,-0.15
18,GCAGGGAA,0.016
19,CTTGTAAA,0.107

# — the supplement of paper PMC3334620
